# About 14,000 (4.5%) of roughly 310,000 compounds showed an effect of 50% or more. The effect is printed as a negative number. This is one part of the list.
# Target: human ether-à-go-go-related gene (hERG) potassium channel (human, UniProt Q12809)
# Assay: primary screen, population patch clamp on CHO cells stably expressing hERG
# 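Also: peak tail current of the secondary pulse compared with the same well before compound.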
# Sequence of human ether-à-go-go-related gene (hERG) potassium channel (Q12809 whole entry, looked up): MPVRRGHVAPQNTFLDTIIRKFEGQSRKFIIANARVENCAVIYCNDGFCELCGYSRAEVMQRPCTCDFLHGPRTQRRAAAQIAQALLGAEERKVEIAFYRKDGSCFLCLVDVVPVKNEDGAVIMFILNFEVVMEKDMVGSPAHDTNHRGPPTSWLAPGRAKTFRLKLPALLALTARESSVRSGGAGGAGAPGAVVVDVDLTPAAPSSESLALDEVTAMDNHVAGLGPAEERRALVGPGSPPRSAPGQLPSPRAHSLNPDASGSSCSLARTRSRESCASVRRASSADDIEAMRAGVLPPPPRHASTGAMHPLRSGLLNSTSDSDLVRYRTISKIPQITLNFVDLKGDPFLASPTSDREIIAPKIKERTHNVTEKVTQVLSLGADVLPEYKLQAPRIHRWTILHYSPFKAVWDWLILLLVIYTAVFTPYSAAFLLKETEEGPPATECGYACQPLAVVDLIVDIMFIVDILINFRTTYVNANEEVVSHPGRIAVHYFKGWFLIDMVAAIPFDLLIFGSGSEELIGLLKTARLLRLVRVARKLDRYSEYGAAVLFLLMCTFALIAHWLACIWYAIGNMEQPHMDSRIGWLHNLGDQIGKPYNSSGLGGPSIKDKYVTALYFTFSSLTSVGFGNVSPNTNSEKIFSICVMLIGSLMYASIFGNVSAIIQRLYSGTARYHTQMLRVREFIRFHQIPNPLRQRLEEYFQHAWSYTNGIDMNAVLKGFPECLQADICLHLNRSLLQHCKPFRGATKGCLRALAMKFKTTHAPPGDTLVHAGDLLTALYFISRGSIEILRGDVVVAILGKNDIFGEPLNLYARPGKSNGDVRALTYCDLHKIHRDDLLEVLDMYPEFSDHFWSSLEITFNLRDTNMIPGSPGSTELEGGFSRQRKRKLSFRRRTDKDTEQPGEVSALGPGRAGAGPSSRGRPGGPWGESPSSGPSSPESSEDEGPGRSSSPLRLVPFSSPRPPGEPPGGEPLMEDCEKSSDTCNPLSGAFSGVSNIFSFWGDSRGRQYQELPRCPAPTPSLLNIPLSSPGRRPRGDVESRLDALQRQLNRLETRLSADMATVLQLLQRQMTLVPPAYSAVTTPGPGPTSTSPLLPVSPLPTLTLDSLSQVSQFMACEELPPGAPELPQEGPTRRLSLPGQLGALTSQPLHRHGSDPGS
row,Compound,"hERG current change (%, negative = inhibition) at 10uM"
1,Cc1cc(C)c2c(NC(=O)C3CC3)nn(C)c2n1,4.48%
2,COc1ccc(/C(N)=N/OC(=O)Cc2ccccc2[N+](=O)[O-])cc1,-10.2%
3,O=C(CNC(=O)c1cccs1)Nc1ccc2c(c1)OCCO2,-5.45%
4,O=C(CSc1nnc(Cc2csc(Nc3cccc(Cl)c3)n2)o1)N1CCc2ccccc21,0.477%
5,COc1ccc(C(=O)NCc2nnc(SCC(=O)Nc3ccccc3OC)o2)cc1,-7.3%
6,CC(C)[C@H](NC(=O)c1ccccc1)C(=O)OCC(=O)/C=C1/N(C)c2ccccc2C1(C)C,-19.3%
7,CCOc1ccc(Cl)cc1CNCCc1ccc(F)cc1.Cl,-48%
8,CC1CCN(CC(=O)NCc2ccco2)CC1,10.9%
9,CCCCCCCC(=O)N/N=C(\C)c1ccc(N)cc1,-17.4%
10,O=C(OCc1nc2ccccc2s1)c1cccc(S(=O)(=O)N2CCOCC2)c1,3.97%
11,CCOC(=O)c1n[nH]n(-c2cc(Cl)cc(Cl)c2)c1=O,25.7%
12,CCc1ccc(O)c(-c2cc(C(=O)Nc3cccnc3)[nH]n2)c1,3.19%
13,Fc1cc(Cl)c(OCc2noc(-c3ccsc3)n2)c(Cl)c1,6.81%
14,CCOC(=O)c1c(NC(=O)C2CCCCC2C(=O)O)sc2c1CCCCC2 (stereo not shown),9.59%
15,COc1cc(NC(=S)Nc2ccc(N(C)C(C)=O)cc2)cc(OC)c1,25.7%
16,COc1ccccc1C(C(=O)NCc1ccc(F)cc1)N(C(=O)c1csnn1)C1CC1 (stereo not shown),1.84%
17,O=C(CNC(=O)c1ccccc1F)N/N=C/c1cccnc1,11.6%
18,CCOc1ccccc1NS(=O)(=O)c1ccc2oc(=O)ccc2c1,-5.62%
19,CS(=O)(=O)Nc1ccc(C(=O)NCC2CCCO2)cc1 (stereo not shown),7.78%
20,Nc1nc2c(-c3ccc(Br)cc3)nnn2c2ccccc12,6.33%
21,O=C1NCCN(Cc2cccc(Oc3ccccc3)c2)C1CC(=O)N1CCCCO1 (stereo not shown),-38.1%
22,COc1ccc(Br)cc1CNC(=O)CCC(=O)n1nc(C)c2ccccc21,17.8%

row,Compound,"hERG current change (%, negative = inhibition) at 10uM"
1,O=C(Nc1ccccc1)OCC1CCCO1 (stereo not shown),21.3%
2,CC(C)C(NC(=O)c1cccc(S(=O)(=O)N2CCOCC2)c1)C(=O)NCCc1ccccn1 (stereo not shown),18.1%
3,CCCn1c(N)c(C(=O)CN(C)CC(=O)Nc2ccccc2C(F)(F)F)c(=O)[nH]c1=O,-0.764%
4,COCCNc1nc2c(-c3cccc(C(F)(F)F)c3)nnn2c2ccccc12,18.6%
5,CCn1c(=O)cc(OCC(=O)NCCC(C)C)c2ccccc21,0.0582%
6,Cc1ccc(NC(=O)C2CCN(S(=O)(=O)c3cccc4nonc34)CC2)cc1,10.6%
7,COc1ccc2ccn(S(=O)(=O)c3ccccc3)c2c1,17.3%
8,CCN(CC)/C(=N\S(=O)(=O)c1ccc(F)cc1)c1ccccc1,8.34%
9,COc1ccc(NCc2ccccc2[N+](=O)[O-])cc1OC,-16.5%
10,C=C(C)C1CC=C(C)/C(=N/NC(=O)COc2cccc3ccccc23)C1 (stereo not shown),10.9%
11,CCC1Oc2ccc(C)cc2N(CC(=O)NCCCN2CCCC2)C1=O (stereo not shown),-34.7%
12,CCOC(=O)c1c(C)oc2cc(Br)c(OCC(N)=O)cc12,7.22%
13,O=C1c2ccccc2C(=O)c2cc(NC(=O)C3CC3)ccc21,3%
14,CCN1CCc2c(OCC(=O)Nc3ccccc3)cccc2C1=O,5.18%
15,Cc1ccc(OCCSCc2nc3ccccc3[nH]2)cc1,-12.6%
16,CC(=O)c1cccc(NC(=O)c2cc(C)nn2-c2ccccc2)c1,-21%
17,O=C(O)c1ccccc1OCc1ccccc1Br,11%
18,CCn1c(C)c(C(=O)NCCc2ccccc2)c2cc(OC)ccc21,-49.3%
19,COc1cccc(NC(=O)CSc2ccc3nnc(-c4ccccn4)n3n2)c1,-47.3%
20,O=C(O)C(=O)O.O=C(c1ccccc1)N1CCN(Cc2ccccc2)CC1,-9.23%
21,COc1ccc(-c2cn(Cc3ccc4c(c3)C(=O)c3ccccc3C4=O)nn2)cc1,-5.75%
22,COc1ccc(N2CCN(C(C)C(=O)N3CCCC3)CC2)cc1.O=C(O)C(=O)O (stereo not shown),9.6%

row,Compound,"hERG current change (%, negative = inhibition) at 10uM"
1,COCCNC(=O)C1CCC(CNS(=O)(=O)c2ccc3c(c2)CC(C)N3C(=O)C2CC2)CC1 (stereo not shown),-5.72%
2,Cc1ccc2nc(NC(=O)C3CCN(S(=O)(=O)c4cccs4)CC3)sc2c1,-6.05%
3,O=C(Nc1ccc2oc(-c3cccnc3)nc2c1)c1cccnc1,9.82%
4,CN(C)/C=C/C1=CC(=O)CC(C)(C)C1,5.27%
5,CC1CCN(C(=O)CCC(=O)N2CC(C)Oc3ccccc32)CC1 (stereo not shown),-8%
6,COc1ccccc1NS(=O)(=O)c1ccc(C)c(C(=O)NCC2CCCO2)c1 (stereo not shown),-16.7%
7,COc1ccc(C(=O)NCc2csc(C)n2)cc1OC1CCN(C(C)=O)CC1,15.3%
8,COc1ccc(S(=O)(=O)Cc2ccc(C(=O)N3CCN(c4cc(Cl)ccc4C)CC3)o2)cc1,9.01%
9,CCn1c(O)c(/C=C/C=C/C=Nc2ccccc2)sc1=S,2.74%
10,Cc1cc(C)cc(C(=O)N(C)C2CCCN(Cc3ccccc3F)C2)c1 (stereo not shown),-13%
11,CC(=O)Oc1ccc(N(C(C)=O)S(=O)(=O)c2cc([N+](=O)[O-])ccc2C)cc1,18.5%
12,CCOc1ccc(C(=O)NNC(=O)CCNC(=O)c2ccc(Br)cc2)cc1OC,2.32%
13,Cc1cc(=O)[nH]c(SCC(=O)NCCC2=CCCCC2)n1,28.2%
14,COc1ccc(OC)c(S(=O)(=O)Nc2ccc(F)cc2)c1,-8.86%
15,COc1ccc(/C=N/NC(=O)c2ccc3c(c2)OCO3)cc1,18.3%
16,CC1=C(C(=O)OC(C)C)C(c2ccc(F)cc2)NC(=O)N1 (stereo not shown),-5.4%
17,O=C(Nc1nccs1)c1ncc(Cl)c(Cl)c1Cl,17.7%
18,O=C(NNC(=S)Nc1ccc(F)c(Cl)c1)c1ccccc1Br,33.4%
19,CCOC(=O)CSCC(=O)Nc1c(C(=O)C2CC2)oc2ccccc12,-43.3%
20,O=S(=O)(c1ccccc1)N1CCc2ccccc21,1.24%
21,COc1ccc(NC(=O)COc2ccc(Br)cc2)c(OC)c1,4.86%
22,Cc1ccccc1-n1c(O)cc(=O)[nH]c1=S,10.7%

row,Compound,"hERG current change (%, negative = inhibition) at 10uM"
1,CC(NS(=O)(=O)c1ccc2c(c1)C(=O)c1cc(S(=O)(=O)NC(C)C(=O)O)ccc1-2)C(=O)O (stereo not shown),18.6%
2,O=C(Cc1cccs1)Nc1ccc(Cl)cc1,-11.1%
3,Cc1nc2nc(SCC(=O)N3CCC4(CC3)OCCO4)nn2c(C)c1Cc1ccccc1,-24.9%
4,Cc1onc(-c2ccccc2)c1C(=O)Nc1nnc(-c2ccncc2)s1,-4.28%
5,COC(=O)c1nn(-c2ccccc2)c(-c2ccccc2)c1C(=O)c1ccccc1,-4.63%
6,COc1ccc(CNC(=O)c2cc(C(C)=O)c[nH]2)cc1,4.25%
7,Cc1cc(Cl)ccc1N=C1N=C(N)c2ccccc21,-17.5%
8,CC(C)(C)N(Cc1ccccc1)C(=O)c1cc2ccccc2o1,8.27%
9,O=C(CSc1ccc(Cl)cc1Cl)N1CCC(c2nc3ccccc3s2)CC1,-14.5%
10,CCN(CC)C(=O)CSc1nnc(CNc2ccc(F)cc2)n1-c1ccccc1,-0.688%
11,Cc1ccccc1N1CCN(S(=O)(=O)c2cccs2)CC1,-6.39%
12,CCOc1ccc(C(=O)NCC(=O)OCC(=O)Nc2ccccc2OC)cc1,-18.1%
13,COc1ccccc1C(=O)N/N=C(\C)CC(=O)Nc1ccc2c(c1)OCCO2,11.6%
14,O=C(COC(=O)c1ccccc1SCC(=O)NC1CCS(=O)(=O)C1)NC1CCS(=O)(=O)C1 (stereo not shown),18.7%
15,O=C(COc1ccc(Cl)cc1Cl)Nc1ccc(S(=O)(=O)NC2=NCCCCC2)cc1,-17%
16,COc1cc2c(cc1NC(=O)COC(=O)CNC(=O)c1ccccc1)oc1ccccc12,20.2%
17,COc1ccc([N+](=O)[O-])cc1NC(=O)CC1SC(=Nc2cccc(C)c2C)N(/N=C(\C)c2ccc(C)cc2)C1=O (stereo not shown),5.95%
18,O=C(c1ccc(S(=O)(=O)N2CCCC2)cc1)N1CCN(c2ccccc2)CC1,-7.94%
19,Cc1ccc(C(=O)COC(=O)c2ccc3c(c2)C(=O)N(c2cccc4ncccc24)C3=O)cc1,20.2%
20,COC(=O)c1ccsc1NC(=O)CN1CCN(c2ccc(F)cc2)CC1,-1.13%
21,COc1ccccc1N1CCN(C(=O)c2ccccc2N(C)S(=O)(=O)c2ccc(C)cc2)CC1,-13%
22,COc1ccc(C2=NN(C(C#N)c3ccc(OC)cc3)C(c3ccccc3)C2)cc1 (stereo not shown),-4.73%
